Experimental data taken from patent US20230340152A1 (published 2023).
Changes are numbered by the printed parent chain. Numbers in names are those of the source.

T1: Human CD73 ECD (human, UniProt P21589 27-549)
T1 construct: Biotinylated in some assays; also called human CD73 extracellular domain; huCD73
T1 sequence: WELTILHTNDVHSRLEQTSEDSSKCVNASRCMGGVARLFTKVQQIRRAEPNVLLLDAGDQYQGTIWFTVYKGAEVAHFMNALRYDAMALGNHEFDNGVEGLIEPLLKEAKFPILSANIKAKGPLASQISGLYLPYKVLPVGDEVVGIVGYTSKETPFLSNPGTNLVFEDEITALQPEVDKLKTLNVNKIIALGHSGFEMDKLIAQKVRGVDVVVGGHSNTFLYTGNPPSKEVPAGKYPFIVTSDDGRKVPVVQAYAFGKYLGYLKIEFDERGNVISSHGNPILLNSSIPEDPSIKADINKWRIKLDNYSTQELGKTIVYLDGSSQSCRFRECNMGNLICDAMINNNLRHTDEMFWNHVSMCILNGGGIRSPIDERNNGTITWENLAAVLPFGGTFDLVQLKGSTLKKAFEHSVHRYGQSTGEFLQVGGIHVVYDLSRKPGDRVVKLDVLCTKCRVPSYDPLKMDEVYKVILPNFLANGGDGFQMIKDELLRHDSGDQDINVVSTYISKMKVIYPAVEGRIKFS

T2: Murine CD73 ECD (murine, UniProt Q61503 29-551, limits assumed)
T2 construct: extracellular domain; In-house recombinant ECD; also called murine CD73 extracellular domain; muCD73
T2 sequence (looked up): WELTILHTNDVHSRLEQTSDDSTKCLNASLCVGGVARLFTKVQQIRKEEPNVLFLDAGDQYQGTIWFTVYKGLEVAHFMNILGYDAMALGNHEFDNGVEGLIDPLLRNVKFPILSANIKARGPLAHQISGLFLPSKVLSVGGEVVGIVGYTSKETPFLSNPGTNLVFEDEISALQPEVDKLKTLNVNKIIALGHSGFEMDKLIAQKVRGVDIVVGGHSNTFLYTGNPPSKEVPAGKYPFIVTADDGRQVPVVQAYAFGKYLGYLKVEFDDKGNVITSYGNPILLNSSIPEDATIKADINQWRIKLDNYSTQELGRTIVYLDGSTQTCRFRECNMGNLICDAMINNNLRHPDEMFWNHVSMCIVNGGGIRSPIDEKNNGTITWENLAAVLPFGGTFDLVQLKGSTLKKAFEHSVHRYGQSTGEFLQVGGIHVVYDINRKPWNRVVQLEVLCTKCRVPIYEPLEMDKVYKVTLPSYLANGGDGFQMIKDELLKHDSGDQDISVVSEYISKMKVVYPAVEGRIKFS

B1: CD730010 GL9 VH Y102A Fab (Fab, name in Kabat numbering, V domains shown)
VH: [not shown - about 100 residues]LGYSTIDAWGRGTLVTVSS
VL: QSVLTQPPSASGTPGQRVTISCSGSLSNIGRNPVNWYQQLPGTAPKLLIYLNNQRPSGVPDRFSGSKSGTSASLAISGLQSEDEADYYCATWDDSLNGWLFGGGTKLTVL
notes: Bacterial Fab, normalized supernatant
B2: CD730010 GL9 VL L50F Fab (Fab, V domains shown)
VH: [not shown - about 100 residues]LGYSTIDYWGRGTLVTVSS
VL: B1 VL with L51F
notes: as for B1
B3: CD730010 GL9 VH Y102M Fab (Fab, name in Kabat numbering, V domains shown)
VH: [not shown - about 100 residues]LGYSTIDMWGRGTLVTVSS
VL: B1 VL
notes: as for B1
B4: CD730010 GL9 VH Y102K Fab (Fab, name in Kabat numbering, V domains shown)
VH: [not shown - about 100 residues]LGYSTIDKWGRGTLVTVSS
VL: B1 VL
notes: as for B1
B5: CD730010 GL9 VL N51Q Fab (Fab, V domains shown)
VH: [not shown - about 100 residues]LGYSTIDYWGRGTLVTVSS
VL: B1 VL with N52Q
notes: as for B1
B6: CD730010 GL9 VL Q53H Fab (Fab, V domains shown)
VH: [not shown - about 100 residues]LGYSTIDYWGRGTLVTVSS
VL: B1 VL with Q54H
notes: as for B1
B7: CD730010 GL9 VL Q53W Fab (Fab, V domains shown)
VH: [not shown - about 100 residues]LGYSTIDYWGRGTLVTVSS
VL: B1 VL with Q54W
notes: as for B1
B8: CD730010 GL9 VL N51A Fab (Fab, V domains shown)
VH: [not shown - about 100 residues]LGYSTIDYWGRGTLVTVSS
VL: B1 VL with N52A
notes: as for B1
B9: CD730010 GL9 VL P32G Fab (Fab, V domains shown)
VH: [not shown - about 100 residues]LGYSTIDYWGRGTLVTVSS
VL: B1 VL with P33G
notes: as for B1
B10: CD730010 GL9 VL P55L Fab (Fab, V domains shown)
VH: [not shown - about 100 residues]LGYSTIDYWGRGTLVTVSS
VL: B1 VL with P56L
notes: as for B1
B11: CD730010 GL9 VL P32A Fab (Fab, V domains shown)
VH: [not shown - about 100 residues]LGYSTIDYWGRGTLVTVSS
VL: B1 VL with P33A
notes: as for B1
B12: CD730010 GL9 VL P32D Fab (Fab, V domains shown)
VH: [not shown - about 100 residues]LGYSTIDYWGRGTLVTVSS
VL: B1 VL with P33D
notes: as for B1
B13: CD730010 GL9 VH Y102Q Fab (Fab, name in Kabat numbering, V domains shown)
VH: [not shown - about 100 residues]LGYSTIDQWGRGTLVTVSS
VL: B1 VL
notes: as for B1
B14: CD730010 GL9 VL S56G Fab (Fab, V domains shown)
VH: [not shown - about 100 residues]LGYSTIDYWGRGTLVTVSS
VL: B1 VL with S57G
notes: as for B1
B15: CD730010 GL9 VH Y102L Fab (Fab, name in Kabat numbering, V domains shown)
VH: [not shown - about 100 residues]LGYSTIDLWGRGTLVTVSS
VL: B1 VL
notes: as for B1
B16: CD730010 GL9 VL P55I Fab (Fab, V domains shown)
VH: [not shown - about 100 residues]LGYSTIDYWGRGTLVTVSS
VL: B1 VL with P56I
notes: as for B1
B17: CD730010 GL9 VL N51D Fab (Fab, V domains shown)
VH: [not shown - about 100 residues]LGYSTIDYWGRGTLVTVSS
VL: B1 VL with N52D
notes: as for B1
B18: CD730010 GL9 VL Q53Y Fab (Fab, V domains shown)
VH: [not shown - about 100 residues]LGYSTIDYWGRGTLVTVSS
VL: B1 VL with Q54Y
notes: as for B1
B19: CD730010 GL9 VL P32E Fab (Fab, V domains shown)
VH: [not shown - about 100 residues]LGYSTIDYWGRGTLVTVSS
VL: B1 VL with P33E
notes: as for B1
B20: CD730010 GL9 VL Q53F Fab (Fab, V domains shown)
VH: [not shown - about 100 residues]LGYSTIDYWGRGTLVTVSS
VL: B1 VL with Q54F
notes: as for B1
B21: CD730010 GL9 VL Q53L Fab (Fab, V domains shown)
VH: [not shown - about 100 residues]LGYSTIDYWGRGTLVTVSS
VL: B1 VL with Q54L
notes: as for B1

Molecular target: T1, Human CD73 ECD
Assay: direct ELISA, normalized Fab supernatant, vs CD730010 GL9

Compared with B1, B2 is lower in “ELISA signal, fold improvement over parental antibody” value (shortened to “ELISA signal, fold improvement”): 6.6 fold for the first, 2.2 fold for the second.

First: B3
Second: B4
The “ELISA signal, fold improvement” value of the first is lower: 7.9 fold for the first, 9.9 fold for the second.

Going from B5 to B6, the “ELISA signal, fold improvement” value falls from 4.2 fold to 2.4 fold.

Going from B7 to B8, the “ELISA signal, fold improvement” value rises from 3.1 fold to 6.7 fold.

First: B9
Second: B10
The “ELISA signal, fold improvement” value of the first is higher: 6.1 fold for the first, 5.7 fold for the second.

Compared with B11, B12 is higher in “ELISA signal, fold improvement” value: 6 fold for the first, 11.7 fold for the second.

Compared with B13, B14 is higher in “ELISA signal, fold improvement” value: 3.6 fold for the first, 7.1 fold for the second.

Compared with B15, B16 is lower in “ELISA signal, fold improvement” value: 7.3 fold for the first, 3.7 fold for the second.

Going from B17 to B18, the “ELISA signal, fold improvement” value falls from 8.9 fold to 5.8 fold.

First: B19
Second: B20
The “ELISA signal, fold improvement” value of the first is higher: 27.7 fold for the first, 4.1 fold for the second.

With B21 the “ELISA signal, fold improvement” value was 6 fold.

Molecular target: T2, Murine CD73 ECD
Assay: as above

Compared with B1, B2 is lower in “ELISA signal, fold improvement” value: 5 fold for the first, 1.4 fold for the second.

Compared with B3, B4 is higher in “ELISA signal, fold improvement” value: 6.3 fold for the first, 7.4 fold for the second.

Compared with B5, B6 is lower in “ELISA signal, fold improvement” value: 2.3 fold for the first, 1.9 fold for the second.

First: B7
Second: B8
The “ELISA signal, fold improvement” value of the first is higher: 2.7 fold for the first, 2.5 fold for the second.

First: B9
Second: B10
The “ELISA signal, fold improvement” value of the first is higher: 5.8 fold for the first, 4.3 fold for the second.

First: B11
Second: B12
The “ELISA signal, fold improvement” value of the first is lower: 5.5 fold for the first, 6.5 fold for the second.

Compared with B13, B14 is higher in “ELISA signal, fold improvement” value: 3 fold for the first, 5.6 fold for the second.

Going from B15 to B16, the “ELISA signal, fold improvement” value falls from 5.8 fold to 3.2 fold.

Compared with B17, B18 is lower in “ELISA signal, fold improvement” value: 4.5 fold for the first, 2.3 fold for the second.

Going from B19 to B20, the “ELISA signal, fold improvement” value falls from 6.7 fold to 2.7 fold.

B21 was tested, and the “ELISA signal, fold improvement” value was 3.8 fold.
